Here are results for 60 molecules from the supplement of paper PMC9446081.

The campaign covered roughly 39,000 compounds. About 220 (0.56%) showed activity. The list shows a part of the results.
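Note: static incubation at 37 °C against the wild-type strain, values averaged over two biological replicates.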

The test system of the test is Escherichia coli K-12 BW25113. Briefly: relative growth (OD600 normalised to plate interquartile mean) (fraction); higher = less growth inhibition, active = 0.2 or less. The following applies: 50 µM; LB; incubation time: overnight (16-24 h).
Turning to `Cc1cc(C(=O)Nc2cccc3c2O[C@H](CN(C)Cc2ccc(Oc4ccccc4)cc2)[C@H](C)CN([C@H](C)CO)C3=O)n(C)n1`, the relative growth is inactive: 0.984. The same measure for `C[C@H](CO)N1C[C@H](C)[C@@H](CN(C)C(=O)Nc2ccc3c(c2)OCO3)Oc2ncc(-c3ccncc3)cc2C1=O`: inactive: 1.01. As to `CC/N=C1\S[C@@H](CC(=O)NC)C(=O)N1CC`, the relative growth was inactive: 1.01. The same measure for `Cc1noc(C)c1S(=O)(=O)N(C)C[C@H]1Oc2ccc(NC(=O)CCCN(C)C)cc2CC(=O)N([C@H](C)CO)C[C@@H]1C`: inactive: 0.976; for `C[C@@H]1CCCCO[C@H](CN(C)S(=O)(=O)c2ccc(F)cc2)[C@H](C)CN([C@@H](C)CO)C(=O)c2cc(NC(=O)NC3CCCCC3)ccc2O1`: inactive: 1.01. Take `CC(=O)OC[C@H]1OC[C@H](OC(C)=O)[C@@H](OC(C)=O)[C@H]1OC(C)=O`: the relative growth is inactive: 0.972.

As for `CC(C)NC(=O)Nc1ccc2c(c1)C(=O)N([C@@H](C)CO)C[C@@H](C)[C@H](CN(C)Cc1ccccc1)OCCCC[C@H](C)O2`, the relative growth was inactive: 1.02. As for `CC(=O)OC1CC(OC(C)=O)C2(C)C(CC(OC(C)=O)C3(C)C4=CC(=O)OC(c5ccoc5)C4(C)CCC32)C1(C)C` (stereo not given), the figure is inactive: 0.992.

For the molecule `O=C(O)C1=C[C@@H](O)[C@H](O)[C@H](O)C1`, the relative growth was inactive: 1.01. In the case of `C[C@@H]1CCCCO[C@H](CN(C)C(=O)Nc2cccc3ccccc23)[C@@H](C)CN([C@@H](C)CO)C(=O)c2cc(N(C)C)ccc2O1`, the relative growth is inactive: 1. Consider `Cc1noc(C)c1S(=O)(=O)N(C)C[C@@H]1Oc2ccc(NS(C)(=O)=O)cc2CC(=O)N([C@H](C)CO)C[C@@H]1C`, for which the relative growth was inactive: 1.06.

As for `C[C@@H]1CCCCO[C@@H](CN(C)C(=O)Nc2ccc3c(c2)OCO3)[C@@H](C)CN([C@H](C)CO)C(=O)c2cc(NC(=O)Nc3ccc(F)cc3)ccc2O1`, the relative growth is inactive: 1.03. With `O=C(C[C@@H]1CC[C@@H]2[C@H](COC[C@@H](O)CN2Cc2cccc(C(F)(F)F)c2)O1)NCCc1ccncc1`, the relative growth is inactive: 0.93. Consider `COc1ccc(S(=O)(=O)Nc2ccc3c(c2)CC(=O)N([C@H](C)CO)C[C@H](C)[C@H](CN(C)S(=O)(=O)c2ccccc2)O3)cc1`, for which the relative growth is inactive: 1. In the case of `C[C@H](CO)N1C[C@H](C)[C@@H](CN(C)C(=O)c2cc(-c3ccccc3)on2)OCc2cn(nn2)CCCC1=O`, the relative growth is inactive: 0.997. In the case of `COC(=O)[C@@H]1C(=O)NC[C@H]1c1cccnc1`, the relative growth was inactive: 0.996. Consider `CN1C(=O)[C@@H](O)N(c2ccccc2)C1=O`, for which the relative growth was inactive: 1.02. With `CC(=O)c1ccc(OCc2c(-c3ccccc3)nnn2CC(=O)NS(=O)(=O)Cc2ccccc2)cc1`, the relative growth is inactive: 1.01. Take `COc1ccc(NC(=O)Nc2ccc3c(c2)CC(=O)N([C@H](C)CO)C[C@H](C)[C@@H](CN(C)Cc2ccc(Cl)c(Cl)c2)O3)cc1`: the relative growth was inactive: 0.999. As for `C[C@@H]1CN([C@@H](C)CO)C(=O)c2cc(C#CC3(O)CCCC3)cnc2O[C@@H]1CN(C)C(=O)CN(C)C`, the figure is inactive: 1.02; as for `COCCNC(=O)C[C@@H]1CC[C@@H]2[C@H](COC[C@H](O)CN2S(=O)(=O)c2ccccc2C)O1`, inactive: 0.986.

In the case of `C[C@@H]1CN([C@H](C)CO)C(=O)c2c(c3ccccc3n2C)-c2ccccc2CO[C@H]1CN(C)C(=O)Nc1cccc(F)c1`, the relative growth is inactive: 1.04. The same measure for `C[C@H](CO)N1C[C@H](C)[C@@H](CN(C)Cc2ccc(C(=O)O)cc2)Oc2c(NS(=O)(=O)c3cn(C)cn3)cccc2C1=O`: inactive: 0.989. As for `C[C@@H]1CN([C@H](C)CO)C(=O)Cc2cc(NC(=O)Cc3ccccc3)ccc2O[C@@H]1CN(C)Cc1ccc(Oc2ccccc2)cc1`, the figure is inactive: 0.998; as for `C[C@@H]1CN([C@@H](C)CO)C(=O)c2cc(-c3cccc(C(=O)N(C)C)c3)cnc2O[C@H]1CN(C)S(=O)(=O)c1ccc(F)cc1`, inactive: 1; as for `COc1ccc(S(=O)(=O)Nc2ccc3c(c2)CC(=O)N([C@@H](C)CO)C[C@H](C)[C@@H](CN(C)Cc2ccc(-c4ccccc4)cc2)O3)cc1`, inactive: 0.998. For `COc1ccc2c3c(n(c2c1)C)[C@@H](CO)N(C[C@]13CCN(CC1)S(=O)(=O)C)C(=O)CN(C)C`, the relative growth is inactive: 0.962. The same measure for `COc1ccc(S(=O)(=O)Nc2ccc3c(c2)C(=O)N([C@H](C)CO)C[C@@H](C)[C@H](CN(C)Cc2ccc4c(c2)OCO4)OCCCC[C@H](C)O3)cc1`: inactive: 0.988; for `C[C@@H]1CN([C@H](C)CO)C(=O)c2c(c3ccccc3n2C)-c2ccccc2CO[C@H]1CN(C)C(=O)Nc1cccc(Cl)c1Cl`: inactive: 1.02; for `CNC[C@H]1OCCCC[C@@H](C)Oc2ccc(NS(=O)(=O)c3cn(C)cn3)cc2C(=O)N([C@H](C)CO)C[C@@H]1C`: inactive: 0.992. With `O=C(C[C@H]1C=C[C@H](NC(=O)CN2CCOCC2)[C@@H](CO)O1)NC1CCC1`, the relative growth is inactive: 1.01. The same measure for `COc1cccc(S(=O)(=O)N2C[C@H](O)COC[C@@H]3O[C@H](CC(=O)N4CCOCC4)CC[C@H]32)c1`: inactive: 0.991; for `Cc1noc(C)c1S(=O)(=O)Nc1ccc2c(c1)CC(=O)N([C@H](C)CO)C[C@@H](C)[C@@H](CN(C)Cc1ccncc1)O2`: inactive: 1.01. As for `C[C@@H]1CN([C@H](C)CO)C(=O)CCCn2nncc2CO[C@H]1CN(C)C(=O)Nc1cccc(Oc2ccccn2)c1`, the relative growth is inactive: 0.935.

Turning to `Cc1noc(C)c1NC(=O)N(C)C[C@@H]1OCCCC[C@H](C)Oc2ccc(NC(=O)Nc3ccc(C(F)(F)F)cc3)cc2C(=O)N([C@@H](C)CO)C[C@H]1C`, the relative growth was inactive: 1.02. As to `CO[C@@H]1CN(C)C(=O)c2cc(NS(=O)(=O)CC(F)(F)F)ccc2OC[C@H](C)N(C(=O)NC(C)C)C[C@H]1C`, the relative growth was inactive: 1. Take `C[C@H]1CN([C@@H](C)CO)C(=O)c2cccc(NC(=O)Nc3ccc(C(F)(F)F)cc3)c2O[C@@H]1CN(C)S(C)(=O)=O`: the relative growth is inactive: 0.934. The same measure for `C[C@H]1CC/C=C\[C@H]2O[C@@]34C=CCN(c5ccc6ccccc6c5)C(=O)[C@H]3N(CCCO)C(=O)[C@@H]4[C@@H]2C(=O)O1`: inactive: 0.969; for `C[C@H]1CCCCO[C@@H](CN(C)C(=O)Nc2ccc3c(c2)OCO3)[C@@H](C)CN([C@@H](C)CO)C(=O)c2cc(NC(=O)c3ccccc3)ccc2O1`: inactive: 1.02.

For `C[C@@H]1CN([C@H](C)CO)S(=O)(=O)c2ccc(C#Cc3ccccn3)cc2O[C@@H]1CN(C)Cc1ccccc1`, the relative growth is inactive: 1.03.

Turning to `C[C@H](CO)N1C[C@H](C)[C@H](CN(C)Cc2ccc(Cl)c(Cl)c2)Oc2c(NC(=O)Nc3ccc4c(c3)OCO4)cccc2C1=O`, the relative growth is inactive: 1. As for `O=C(C[C@H]1C=C[C@@H](NC(=O)c2ccc3c(c2)OCO3)[C@@H](CO)O1)NCc1ccc(Oc2ccccc2)cc1`, the figure is inactive: 1.01. The same measure for `Cc1noc(C)c1NC(=O)N(C)C[C@@H]1OCCCC[C@H](C)Oc2ccc(NS(=O)(=O)c3ccc(Cl)cc3)cc2C(=O)N([C@H](C)CO)C[C@@H]1C`: inactive: 1; for `O=C(C[C@H]1CC[C@H]2[C@@H](COC[C@@H](O)CN2S(=O)(=O)c2ccc(Cl)cc2)O1)N1CCc2ccccc2C1`: inactive: 1.03; for `OCCN1CNC(=S)NC1`: inactive: 0.983. Regarding `COc1ccc(NC(=O)Nc2ccc3c(c2)C(=O)N([C@H](C)CO)C[C@@H](C)[C@H](CN(C)CC2CCCCC2)O3)cc1`, the relative growth was inactive: 1.01. The same measure for `C[C@H]1CN([C@@H](C)CO)S(=O)(=O)c2ccc(C3=CCCC3)cc2O[C@@H]1CN(C)S(=O)(=O)c1ccc(F)cc1`: inactive: 1.02. As for `O=C(N[C@H]1CC[C@@H](CC(=O)N2CCOCC2)O[C@H]1CO)c1ccccn1`, the figure is inactive: 1; as for `O=C1/C(=C/c2cn(-c3ccccc3)nc2-c2ccc(OCc3ccc(Cl)cc3)cc2)SC(=S)N1CCS(=O)(=O)O`, inactive: 0.994. As for `C[C@H](CO)N1C[C@H](C)[C@H](CN(C)S(C)(=O)=O)Oc2ccc(N(C)C)cc2C1=O`, the figure is inactive: 0.99. Take `O=C(O)COCC(=O)Nc1cnccn1`: the relative growth was inactive: 0.972.

Take `C[C@H](CO)N1C[C@H](C)[C@@H](CN(C)C(=O)Cc2ccccc2)OCCCC[C@H](C)Oc2ccc(NC(=O)Nc3ccc(C(F)(F)F)cc3)cc2C1=O`: the relative growth was inactive: 1.02. As for `C[C@H]1CN([C@@H](C)CO)C(=O)Cc2cc(NC(=O)Nc3ccc(F)cc3)ccc2O[C@@H]1CN(C)Cc1ccc(Cl)c(Cl)c1`, the figure is inactive: 0.993; as for `C[C@@H]1CN([C@H](C)CO)C(=O)Cc2cc(NC(=O)Nc3cccc4ccccc34)ccc2O[C@@H]1CN(C)S(=O)(=O)c1ccc(F)cc1`, inactive: 1.02. The same measure for `O=C(C[C@H]1C[C@H]2c3cc(NC(=O)c4ccc5c(c4)OCO5)ccc3O[C@H]2[C@H](CO)O1)NCc1cccnc1`: inactive: 0.952; for `C[C@H]1CCCCO[C@H](CN(C)C(=O)c2ccncc2)[C@@H](C)CN([C@@H](C)CO)C(=O)c2cc(NS(=O)(=O)c3ccc(Cl)cc3)ccc2O1`: inactive: 0.998. As for `CC(=O)NCCCC[C@@H]1NC(=O)[C@@H]2C[C@H](C(=O)NCCCCCN)[C@H](c3ccc(O)cc3)N2C1=O`, the figure is inactive: 0.992; as for `C[C@@H]1CN([C@H](C)CO)C(=O)c2cc(NC(=O)Nc3ccccc3)ccc2O[C@@H](C)CCCCO[C@@H]1CN(C)C(=O)CCC(F)(F)F`, inactive: 0.988; as for `O=S(=O)(NCC[C@@H]1CC[C@@H](NS(=O)(=O)c2ccccc2Cl)[C@H](CO)O1)c1ccc(Cl)cc1`, inactive: 1.03. Regarding `CS(=O)(=O)O.Oc1ccc(C2CNCCc3c2cc(O)c(O)c3Cl)cc1` (stereo not given), the relative growth was inactive: 0.958.
